# Measurements published in PubChem BioAssay AID1508642 (National Center for Advancing Translational Sciences (NCATS), 2021).
# In all, about 43,000 compounds went through this assay and about 200 (0.47%) were called active. Not shown: some 12% with an inconclusive outcome. Calls come from the whole dose curve; as a rule, active = well fitted cell-killing curve with a large enough effect; inconclusive = small, poorly fitted or top-dose-only effect, or effect the other way; inactive = flat fitted curve, though single readings scatter. Some of the results follow.
# Experiment: Cell viability qHTS assay in S16 Pmp22-F2sN cells; note: nearly all actives have a fitted effect of over 65% in size
# Conditions: S16 Pmp22-F2sN Schwann cells (luciferase reporters placed in the Pmp22 gene) viability, CellTiter-Glo, 24 h; series mostly up to 57.5 µM; activity change, negative = cytotoxicity: at the top concentration
# Procedure, shortened: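 S16 Schwann cells carrying the Pmp22-F2sN reporter, seeded in 1536-well format, were exposed to library compounds for 24 h at 37C. Viability was read as CellTiter-Glo luminescence after 15 min at room temperature.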
# % is set by controls: 0 for no effect and ±100 for the full control effect; potency is the fitted concentration of half-maximal effect.
Compound,"activity change, negative = cytotoxicity",Potency
COc1cc(NC(=O)C(CC(C)C)NS(=O)(=O)c2ccc3c(c2)CCN3C(C)=O)cc(OC)c1 (stereo unspecified),inactive: 5.98%,
CCc1ccc(CNCc2c(C(=O)O)n(Cc3ccc(C)cc3)c3cc(C)ccc23)cc1,inactive: 3.21%,
CCCCCCSc1nnc2c(n1)OC(C)Nc1ccc(Br)cc1-2 (stereo unspecified),inactive: 1.4%,
Cc1c(C(=O)Nc2cccc(-c3nc4ccccc4s3)c2)oc2ccccc12,inactive: 15.6%,
CCOc1ccc2nc(N3CCCC(C(=O)Nc4cc(Cl)c(OC)cc4OC)C3)sc2c1 (stereo unspecified),inactive: -3.64%,
COc1ccc(CNC(=O)c2ccc(NC(=O)N3CCSc4ccccc43)cc2)cc1,inactive: 6.51%,
CCOC(=O)c1ccccc1NC(=O)COc1ccccc1-c1nnc(-c2ccccc2)o1,inactive: -14.8%,
Cc1cccc(-n2ncc3c(N4CCCC(C)C4)ncnc32)c1 (stereo unspecified),inactive: -0.221%,
C#CCOc1ccc(C2CC(=O)Nc3c2c(C)nn3-c2nc(C)cc(C)n2)cc1 (stereo unspecified),inactive: -7.32%,
Cc1ccc(Cn2ccnc2SCC(=O)Nc2nc3ccccc3s2)cc1,inactive: 10.9%,
NS(=O)(=O)c1ccc(NC(=O)C(=O)Nc2ccc3nc4n(c(=O)c3c2)CCCCC4)cc1,inactive: 8.41%,
O=c1ccc(-c2ccccc2)nn1Cc1ccc(F)cc1Cl,inactive: -11.7%,
Cc1cccc(NC(=O)CN2C(=O)c3cccc4cccc2c34)c1C,inactive: -2.52%,
CCCN1CCN(c2ncnc3sc(C(=O)Nc4c(C)cc(C)cc4C)c(C)c23)CC1,,active: 25.1 µM
CCOC(=O)N1CCC2(CC1)OC(=O)C(C)=C2C(=O)NCc1cccc(F)c1,inactive: 11%,
CCC1CN(S(=O)(=O)c2cc(-c3onc(C)c3C)ccc2C)c2cc(Cl)ccc2O1 (stereo unspecified),inactive: -0.0797%,
NC(=O)C1(N2CCCCC2)CCN(C(=O)Nc2ccc(F)cc2F)CC1,inactive: 3.9%,
CCc1ccc(C(=O)c2cn(CC(=O)Nc3ccc(OC)cc3)c3cc4c(cc3c2=O)OCO4)cc1,inactive: 9.76%,
CC(C)CCN(C(=O)Nc1ccccc1)C(C)c1cccs1 (stereo unspecified),inactive: 3%,
Cc1cc(C)c(Cn2c(C3CC(=O)N(c4ccc(F)cc4)C3)nc3ccccc32)c(C)c1 (stereo unspecified),inactive: 20.7%,
CC(C)OC(=O)c1c(-c2ccccc2)c(-c2ccccc2)nn(C)c1=O,inactive: -15%,

Compound,"activity change, negative = cytotoxicity",Potency
CCOC(=O)c1ccc(NC(=O)CCn2ccc(C)n2)cc1,inactive: -1.28%,
COc1cccc(NC(=O)CSc2nc(=O)n(Cc3ccncc3)c3c2CCC3)c1,inactive: -3.94%,
O=C(NCc1cccs1)C1CCN(C(=O)N2CCOc3ccc(Cl)cc32)CC1,inactive: -15.1%,
CC(=O)N1CCc2cc(S(=O)(=O)NC(Cc3ccccc3)C(=O)NCc3ccc(C)cc3)ccc21 (stereo unspecified),inactive: -12.6%,
CNS(=O)(=O)c1cn(CC(=O)Nc2ccc(C(C)=O)cc2)cc1S(=O)(=O)NC,inactive: 14.5%,
Cc1ccc(CN2CCN(C3CCN(C(=O)Nc4ccc(C)cc4Cl)CC3)C(=O)C2=O)cc1,inactive: 11.4%,
CC(=O)N1CCc2cc(CNC(=O)c3ccccc3Br)ccc21,inactive: 10.4%,
CCCCNS(=O)(=O)c1ccc(C)c(-c2nnc3c4ccccc4c(C)nn23)c1,inactive: -16.2%,
COc1ccc(CCNC(=O)C2CCN(S(=O)(=O)c3c(C)noc3/C=C/c3ccc(C)cc3)CC2)cc1OC,inactive: 5.44%,
COc1ccccc1NC(=O)CSC1=Nc2ccccc2C2=NC(CC(=O)NCc3ccccc3)C(=O)N12 (stereo unspecified),inactive: 4.39%,
CCOc1ccc(NC(=O)C2CCCN(c3nnc(C)c4c(C)n(-c5ccccc5)nc34)C2)cc1 (stereo unspecified),inactive: -0.177%,
Cn1c(=O)c2c(nc(N3CCOCC3)n2Cc2ccc(Br)cc2)n(C)c1=O,inactive: 1.48%,
Cc1ccc(S(=O)(=O)N2CCc3cc(C(=O)Nc4c(F)cccc4F)ccc32)cc1,inactive: 0.747%,
CCC(C(=O)N1CCN(c2cc(C)ccc2C)CC1)n1nc(C)n2c(cc3occc32)c1=O (stereo unspecified),inactive: -17.7%,
CCOC(=O)Cn1c(=O)n(C2CCCCC2)c2nc(-c3ccc(C(C)C)cc3)nc(C(N)=O)c21,inactive: 23.8%,
Cc1ccc2c(CN3CCN(C(=O)c4ccc(Br)cc4)CC3)cc(=O)oc2c1,inactive: -22.2%,
O=C(CSc1ccc(-c2ccccn2)nn1)Nc1ccc(F)cc1F,inactive: 11.6%,
Cc1ccc(CN2CCN(C3CCNCC3)C(=O)C2=O)cc1,inactive: 16.3%,
Cc1ccc2nc(NC(=O)CSc3ncc(C(=O)Nc4ccc(F)cc4)c(=O)n3C)sc2c1,inactive: 25.8%,
CCc1ccc(NC(=O)Cn2c(=O)n(-c3ccc(OC)cc3)c(=O)c3ccc(C(=O)NCc4ccc(C)cc4)cc32)cc1,inactive: -7.8%,
Cc1ccc(CNC(=O)CCNS(=O)(=O)c2cccc3nsnc23)cc1,inactive: -2.87%,

Compound,"activity change, negative = cytotoxicity",Potency
CCn1cc(C(=O)N(C)c2ccc(C(C)C)cc2)c2cc(OC)c(OC)cc2c1=O,inactive: -18.4%,
CCc1ccc(-n2nc(C)c3c(C)cc(=O)n(CC(=O)Nc4ccc(F)cc4C)c32)cc1,inactive: 23.7%,
COCCn1cc(C(=O)NCCCOC(C)C)c2c3ccccc3n(C)c2c1=O,inactive: 13.6%,
COc1ccc(CNC(=O)Cc2ccc(NC(=O)N3CCSc4ncccc43)cc2)cc1,inactive: -4.63%,
Cc1ccc(Cc2nc3ccccc3nc2SCC(=O)N2CCN(c3ccc(F)cc3)CC2)cc1,inactive: 1.89%,
CCOC(=O)c1noc2nc(C)n(Cc3cccc([N+](=O)[O-])c3)c(=O)c12,inactive: -18.5%,
CCc1ccc2oc(C(=O)Nc3cc(C)ccc3C)cc(=O)c2c1,inactive: -0.189%,
O=C(Nc1cc2c(cc1C(=O)c1ccccc1Cl)OCCO2)c1ccccc1,inactive: -0.0035%,
CC(C)c1nn2c(=O)cc(COC(=O)c3ccccc3NC(=O)C3CCCCC3)nc2s1,inactive: 27%,
CC(=O)c1ccc(Nc2cc(C)nc3nc(Cc4ccc(Cl)cc4)nn23)cc1,inactive: -1.49%,
CC1Cc2ccccc2N1C(=O)CSc1nnc(-c2ccccc2Cl)o1 (stereo unspecified),inactive: 13.6%,
CN(C)c1ccc(CNC(=O)c2ccccc2NC(=O)c2nsc3ccccc23)cc1,inactive: 17.4%,
Cc1ccc(NC(=O)Cn2ccn(-c3ccccc3)c(=O)c2=O)cc1,inactive: 4.87%,
CCN(C(=O)CSc1nc2ccccc2[nH]1)c1ccccc1,inactive: 5.25%,
Cc1ccc(Cn2cc(S(=O)(=O)c3cccc(Cl)c3)c(=O)c3cc(F)c(N4CCOCC4)cc32)cc1,inactive: -2.49%,
CCOc1ccc(C2NC(=O)c3c(COC)cc(C)nc3N2Cc2ccccc2)cc1OC (stereo unspecified),inactive: 5.91%,
CCCOc1ccc(CNC(=O)c2ccc(-n3c(C)cc4c3CCC(C)C4)cc2)cc1 (stereo unspecified),inactive: 13.9%,
Cc1cc2oc(C(=O)Nc3ccc(S(=O)(=O)Nc4ncccn4)cc3)cc(=O)c2cc1C,inactive: 6.72%,
COc1ccccc1-c1noc(CCC(=O)Nc2ccc(C)cc2C)n1,inactive: 0.0357%,
